{"source": "paper PMC4336329", "about": "(PLoS ONE, 2015)", "note": "Screen size: about 310,000 compounds; about 2,200 (0.71%) showed an effect of 50% or more. Effects have a minus sign here. This is one part of the list.", "data": [{"biological_target": "human ether-à-go-go-related gene (hERG) potassium channel (human, UniProt Q12809)", "sequence (Q12809 whole entry, looked up)": "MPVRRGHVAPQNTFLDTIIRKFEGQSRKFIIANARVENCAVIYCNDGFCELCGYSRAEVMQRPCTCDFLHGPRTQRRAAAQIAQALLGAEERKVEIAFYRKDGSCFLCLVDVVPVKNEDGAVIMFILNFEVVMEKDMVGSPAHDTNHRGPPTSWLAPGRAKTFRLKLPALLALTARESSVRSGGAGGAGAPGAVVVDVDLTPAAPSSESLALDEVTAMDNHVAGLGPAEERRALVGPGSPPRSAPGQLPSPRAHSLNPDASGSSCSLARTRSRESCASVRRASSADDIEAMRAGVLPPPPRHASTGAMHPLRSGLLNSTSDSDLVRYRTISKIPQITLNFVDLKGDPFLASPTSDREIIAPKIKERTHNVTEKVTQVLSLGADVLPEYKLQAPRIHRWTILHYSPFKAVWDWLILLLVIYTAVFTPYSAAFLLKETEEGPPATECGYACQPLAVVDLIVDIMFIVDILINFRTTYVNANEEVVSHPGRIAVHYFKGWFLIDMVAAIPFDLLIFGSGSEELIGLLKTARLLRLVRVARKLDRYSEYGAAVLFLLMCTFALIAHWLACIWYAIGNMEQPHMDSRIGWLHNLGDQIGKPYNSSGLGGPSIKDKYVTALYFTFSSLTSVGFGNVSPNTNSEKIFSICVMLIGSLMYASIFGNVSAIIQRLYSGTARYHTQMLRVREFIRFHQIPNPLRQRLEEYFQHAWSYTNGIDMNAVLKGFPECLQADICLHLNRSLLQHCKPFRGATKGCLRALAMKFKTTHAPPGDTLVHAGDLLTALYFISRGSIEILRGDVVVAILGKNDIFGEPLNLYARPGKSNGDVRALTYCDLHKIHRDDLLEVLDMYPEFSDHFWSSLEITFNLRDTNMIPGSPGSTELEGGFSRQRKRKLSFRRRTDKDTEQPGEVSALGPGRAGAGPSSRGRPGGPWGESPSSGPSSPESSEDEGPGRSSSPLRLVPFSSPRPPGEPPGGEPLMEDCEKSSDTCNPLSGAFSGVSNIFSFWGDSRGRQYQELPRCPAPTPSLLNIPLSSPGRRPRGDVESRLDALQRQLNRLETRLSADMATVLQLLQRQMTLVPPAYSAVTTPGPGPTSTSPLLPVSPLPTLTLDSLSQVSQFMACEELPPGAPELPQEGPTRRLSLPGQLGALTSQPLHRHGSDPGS", "assay": "primary screen, population patch clamp on CHO cells stably expressing hERG", "units": {"hERG current change (%, negative = inhibition) at 1uM": "%"}, "values": [{"smiles": "Cc1ccc(S(=O)(=O)NC2CCCCC2)cc1", "hERG current change (%, negative = inhibition) at 1uM": 11.3}, {"smiles": "Cc1nc2nc(-c3ccccc3)[nH]n2c(=O)c1C", "hERG current change (%, negative = inhibition) at 1uM": 5.03}, {"smiles": "CCS(=O)(=O)N1CCC(C(=O)NCCCN2CCCC2)CC1", "hERG current change (%, negative = inhibition) at 1uM": 16.5}, {"smiles": "COc1cc(/C=C/C(=O)OCC(=O)N2CCCC2)ccc1OCC#N", "hERG current change (%, negative = inhibition) at 1uM": -0.56}, {"smiles": "COCCn1c(SCCCC(=O)c2ccc(Br)cc2)nnc1-c1ccncc1", "hERG current change (%, negative = inhibition) at 1uM": -38}, {"smiles": "CCCOCCOC(=O)c1[nH]c2c(c1C)C(=O)CC(c1cc(OC)ccc1OC)C2", "note": "(centres unmarked)", "hERG current change (%, negative = inhibition) at 1uM": 7.12}, {"smiles": "CCN(CC)C(=O)Cn1cc(S(=O)(=O)CC(=O)Nc2ccc3c(c2)OCCO3)c2ccccc21", "hERG current change (%, negative = inhibition) at 1uM": 0.677}, {"smiles": "CC1CC2=C(C(=O)O1)C(C)Nc1ccccc1N2", "note": "(centres unmarked)", "hERG current change (%, negative = inhibition) at 1uM": 8.27}, {"smiles": "Cc1ccc(S(=O)(=O)/N=C(/NC(=S)Nc2cccc(C)c2)c2ccccc2)cc1", "hERG current change (%, negative = inhibition) at 1uM": 10.1}, {"smiles": "COc1cc(CC(=O)OCC(=O)Nc2ccc(N3CCOCC3)cc2)cc(OC)c1OC", "hERG current change (%, negative = inhibition) at 1uM": 8.9}, {"smiles": "O=C(CSc1ncnc2c1nnn2-c1ccc(F)cc1)NCc1ccco1", "hERG current change (%, negative = inhibition) at 1uM": 3}, {"smiles": "CC(=O)c1c(O)cc(C)n(Cc2ccccc2)c1=O", "hERG current change (%, negative = inhibition) at 1uM": 4.37}, {"smiles": "O=C(Nc1cccc(S(=O)(=O)N2CCCC2)c1)C1CCCN1C(=O)c1cccs1", "note": "(centres unmarked)", "hERG current change (%, negative = inhibition) at 1uM": 9.22}, {"smiles": "COC(=O)C1=C(c2ccc(C(C)=O)cc2)C[C@@H]2CC[C@H]1N2C(=O)NCCO", "hERG current change (%, negative = inhibition) at 1uM": 6.97}, {"smiles": "CC(=NCc1ccco1)c1c(O)n(-c2ccccc2C)c(=O)[nH]c1=O", "hERG current change (%, negative = inhibition) at 1uM": 22.5}, {"smiles": "Oc1ccc(/C=N/N2CCN(c3ccccn3)CC2)cc1", "hERG current change (%, negative = inhibition) at 1uM": 10.7}, {"smiles": "O=C1NCN(CCO)CN1", "hERG current change (%, negative = inhibition) at 1uM": 7.35}, {"smiles": "CCOCCCNC(=O)c1ccc2c(c1)ncn2-c1cccc(C)c1", "hERG current change (%, negative = inhibition) at 1uM": -3.56}, {"smiles": "Nc1ccccc1C(=O)Nc1cccc(C(=O)O)c1", "hERG current change (%, negative = inhibition) at 1uM": 12.9}, {"smiles": "Cc1cc(/C=C2/C(=O)NC(=O)N(c3ccc(Br)cc3)C2=O)c(C)n1C", "hERG current change (%, negative = inhibition) at 1uM": 11.2}, {"smiles": "COc1cc(S(=O)(=O)Nc2ccccc2C)ccc1NC(=O)c1ccncc1", "hERG current change (%, negative = inhibition) at 1uM": 7.66}, {"smiles": "CC(C)OC(=O)c1c(NC(=O)CCn2nnc3ccccc32)sc2c1CCCC2", "hERG current change (%, negative = inhibition) at 1uM": 18.2}, {"smiles": "CC(NC(=O)/C(C#N)=C/c1ccc(N2CCOCC2)cc1)c1ccccc1", "note": "(centres unmarked)", "hERG current change (%, negative = inhibition) at 1uM": -1.86}, {"smiles": "COC(=O)CN1C(=O)CC(C)(C)S(=O)c2ccccc21", "note": "(centres unmarked)", "hERG current change (%, negative = inhibition) at 1uM": 2.94}, {"smiles": "Cc1nc2ccccn2c1/C(O)=C1\\C(=O)C(=O)N(CCN(C)C)C1c1ccco1", "note": "(centres unmarked)", "hERG current change (%, negative = inhibition) at 1uM": 1.98}, {"smiles": "CC(Oc1ccccc1)C(=O)N=C1SC2CS(=O)(=O)CC2N1c1ccc(F)cc1", "note": "(centres unmarked)", "hERG current change (%, negative = inhibition) at 1uM": 3.14}, {"smiles": "CC1(C(=O)O)CC(C)(C(=O)O)CC(C)(C(=O)O)C1", "note": "(centres unmarked)", "hERG current change (%, negative = inhibition) at 1uM": 16.2}, {"smiles": "COc1ccc(OCC(=O)Nc2ccc3c(c2)nc(CCN2CCCCC2)n3C)cc1", "hERG current change (%, negative = inhibition) at 1uM": -31.3}, {"smiles": "O=C(Nc1ccc(O)cc1)N1CCOCC1", "hERG current change (%, negative = inhibition) at 1uM": 8.17}, {"smiles": "CN(C(=O)COC(=O)C1=COCCO1)c1c(N)n(Cc2ccccc2)c(=O)[nH]c1=O", "hERG current change (%, negative = inhibition) at 1uM": 24.7}, {"smiles": "Cc1nn(C)c(C)c1CN(C)C(=O)C1CCC(=O)N(C2CCCCCC2)C1", "note": "(centres unmarked)", "hERG current change (%, negative = inhibition) at 1uM": 15.9}, {"smiles": "CCOC(=O)Oc1ccc(C(=O)OCCCN(C)C)cc1OC.Cl", "hERG current change (%, negative = inhibition) at 1uM": -3.8}, {"smiles": "CCOC(=O)c1cc(-c2ccc(OC)cc2F)nc2c1c(C)nn2CCC#N", "hERG current change (%, negative = inhibition) at 1uM": 8.73}, {"smiles": "COc1ccc(C(=O)NCC(c2cccs2)N2CCOCC2)cc1OC", "note": "(centres unmarked)", "hERG current change (%, negative = inhibition) at 1uM": 6.87}, {"smiles": "Cc1cc(C)c(NC(=S)N(C)C)cc1C", "hERG current change (%, negative = inhibition) at 1uM": 3.51}, {"smiles": "COc1ccc(S(=O)(=O)N(C)c2ccc(C(=O)N3CCN(c4ccccc4)CC3)cc2)cc1OC", "hERG current change (%, negative = inhibition) at 1uM": 0.78}, {"smiles": "COc1ccc(NC(=O)CSc2ccc(-c3ccco3)nn2)c(OC)c1", "hERG current change (%, negative = inhibition) at 1uM": 14.6}, {"smiles": "CCN(c1ccccc1)S(=O)(=O)c1ccc(OCC(=O)N2CCCC2)cc1", "hERG current change (%, negative = inhibition) at 1uM": 11.5}, {"smiles": "CCn1c(SCC(=O)NC2CC2)nnc1-c1ccc(C)cc1", "hERG current change (%, negative = inhibition) at 1uM": 7.5}, {"smiles": "CC(C)c1ccc(/C=C/C(=O)Nc2nncs2)cc1", "hERG current change (%, negative = inhibition) at 1uM": 10.6}, {"smiles": "OCC1(Cc2ccccc2)CCCN(Cc2ccc(-c3ccco3)cc2)C1", "note": "(centres unmarked)", "hERG current change (%, negative = inhibition) at 1uM": 1.72}, {"smiles": "COc1cccc(Cn2cnc3c(N)c(C)c(C)cc32)c1", "hERG current change (%, negative = inhibition) at 1uM": 3.4}, {"smiles": "COc1ccc(NC(=O)CN2C(=O)/C(=C3\\SC(=S)N(CCC(=O)O)C3=O)c3ccccc32)cc1", "hERG current change (%, negative = inhibition) at 1uM": 10.9}, {"smiles": "Cc1oc2c(c(C)cc3oc(=O)c(CC(=O)N[C@@H](C)C(=O)O)c(C)c32)c1C", "hERG current change (%, negative = inhibition) at 1uM": 13.7}]}]}
